Reference: PMC9911399, “Two distinct binding modes provide the RNA-binding protein RbFox with extraordinary sequence specificity”
Positions count from the first letter of the chain named. Some of the results follow.

T1: RBFOX1 RRM (Homo sapiens, UniProt Q9NWB1 109-208)
T1 sequence: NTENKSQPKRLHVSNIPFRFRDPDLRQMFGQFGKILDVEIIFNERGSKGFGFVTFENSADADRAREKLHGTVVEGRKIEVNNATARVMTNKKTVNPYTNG

B1: GCAACCC (DNA:RNA)
RNA: GGGAGACCGGAAUUCAGAUUGUCCGCAACCCUUAAAUCCCGUCGUAGCCACCA
DNA 1: CAATCTGAATTCCGGTCTCCC
DNA 2: TGGTGGCTACGACGGGATT
B2: AACUAUC (DNA:RNA)
RNA: B1 RNA with G25A, C26A, A27C, A28U, C29A, C30U
DNA 1: CAATCTGAATTCCGGTCTCCC
DNA 2: TGGTGGCTACGACGGGATT
B3: AAAGUGC (DNA:RNA)
RNA: B1 RNA with G25A, C26A, A28G, C29U, C30G
DNA 1: CAATCTGAATTCCGGTCTCCC
DNA 2: TGGTGGCTACGACGGGATT
B4: GGAAAAA (DNA:RNA)
RNA: B1 RNA with C26G, C29A, C30A, C31A
DNA 1: CAATCTGAATTCCGGTCTCCC
DNA 2: TGGTGGCTACGACGGGATT
B5: GUCCCAG (DNA:RNA)
RNA: B1 RNA with C26U, A27C, A28C, C30A, C31G
DNA 1: CAATCTGAATTCCGGTCTCCC
DNA 2: TGGTGGCTACGACGGGATT
B6: GGGUUGA (DNA:RNA)
RNA: B1 RNA with C26G, A27G, A28U, C29U, C30G, C31A
DNA 1: CAATCTGAATTCCGGTCTCCC
DNA 2: TGGTGGCTACGACGGGATT
B7: UAGUUAC (DNA:RNA)
RNA: B1 RNA with G25U, C26A, A27G, A28U, C29U, C30A
DNA 1: CAATCTGAATTCCGGTCTCCC
DNA 2: TGGTGGCTACGACGGGATT
B8: UCUUUUA (DNA:RNA)
RNA: B1 RNA with G25U, A27U, A28U, C29U, C30U, C31A
DNA 1: CAATCTGAATTCCGGTCTCCC
DNA 2: TGGTGGCTACGACGGGATT
B9: UACAUCC (DNA:RNA)
RNA: B1 RNA with G25U, C26A, A27C, C29U
DNA 1: CAATCTGAATTCCGGTCTCCC
DNA 2: TGGTGGCTACGACGGGATT
B10: UGCGUAA (DNA:RNA)
RNA: GGGAGACCGGAAUUCAGAUUGUCCUGCGUAAUUAAAUCCCGUCGUAGCCACCA
DNA 1: CAATCTGAATTCCGGTCTCCC
DNA 2: TGGTGGCTACGACGGGATT
B11: ACCCAUU (DNA:RNA)
RNA: B1 RNA with G25A, A27C, A28C, C29A, C30U, C31U
DNA 1: CAATCTGAATTCCGGTCTCCC
DNA 2: TGGTGGCTACGACGGGATT
B12: UUCAAUG (DNA:RNA)
RNA: B10 RNA with G26U, G28A, U29A, A30U, A31G
DNA 1: CAATCTGAATTCCGGTCTCCC
DNA 2: TGGTGGCTACGACGGGATT
B13: GACUUAA (DNA:RNA)
RNA: B10 RNA with U25G, G26A, G28U
DNA 1: CAATCTGAATTCCGGTCTCCC
DNA 2: TGGTGGCTACGACGGGATT
B14: AUAGUCC (DNA:RNA)
RNA: B1 RNA with G25A, C26U, A28G, C29U
DNA 1: CAATCTGAATTCCGGTCTCCC
DNA 2: TGGTGGCTACGACGGGATT
B15: UCUUAGA (DNA:RNA)
RNA: B10 RNA with G26C, C27U, G28U, U29A, A30G
DNA 1: CAATCTGAATTCCGGTCTCCC
DNA 2: TGGTGGCTACGACGGGATT
B16: GCUUUGA (DNA:RNA)
RNA: B1 RNA with A27U, A28U, C29U, C30G, C31A
DNA 1: CAATCTGAATTCCGGTCTCCC
DNA 2: TGGTGGCTACGACGGGATT
B17: UGCUCUA (DNA:RNA)
RNA: B10 RNA with G28U, U29C, A30U
DNA 1: CAATCTGAATTCCGGTCTCCC
DNA 2: TGGTGGCTACGACGGGATT
B18: CACUUAC (DNA:RNA)
RNA: B10 RNA with U25C, G26A, G28U, A31C
DNA 1: CAATCTGAATTCCGGTCTCCC
DNA 2: TGGTGGCTACGACGGGATT
B19: UUUUUCG (DNA:RNA)
RNA: B10 RNA with G26U, C27U, G28U, A30C, A31G
DNA 1: CAATCTGAATTCCGGTCTCCC
DNA 2: TGGTGGCTACGACGGGATT
B20: UAGUAAG (DNA:RNA)
RNA: B10 RNA with G26A, C27G, G28U, U29A, A31G
DNA 1: CAATCTGAATTCCGGTCTCCC
DNA 2: TGGTGGCTACGACGGGATT
B21: GUCUGUG (DNA:RNA)
RNA: B1 RNA with C26U, A27C, A28U, C29G, C30U, C31G
DNA 1: CAATCTGAATTCCGGTCTCCC
DNA 2: TGGTGGCTACGACGGGATT
B22: AUUGAAC (DNA:RNA)
RNA: B10 RNA with U25A, G26U, C27U, U29A, A31C
DNA 1: CAATCTGAATTCCGGTCTCCC
DNA 2: TGGTGGCTACGACGGGATT
B23: CCCAGCC (DNA:RNA)
RNA: B1 RNA with G25C, A27C, C29G
DNA 1: CAATCTGAATTCCGGTCTCCC
DNA 2: TGGTGGCTACGACGGGATT
B24: GAAGCCG (DNA:RNA)
RNA: B1 RNA with C26A, A28G, C31G
DNA 1: CAATCTGAATTCCGGTCTCCC
DNA 2: TGGTGGCTACGACGGGATT
B25: GUAGCAA (DNA:RNA)
RNA: B1 RNA with C26U, A28G, C30A, C31A
DNA 1: CAATCTGAATTCCGGTCTCCC
DNA 2: TGGTGGCTACGACGGGATT
B26: GGGGAGC (DNA:RNA)
RNA: B1 RNA with C26G, A27G, A28G, C29A, C30G
DNA 1: CAATCTGAATTCCGGTCTCCC
DNA 2: TGGTGGCTACGACGGGATT
B27: CUGUUGG (DNA:RNA)
RNA: B10 RNA with U25C, G26U, C27G, G28U, A30G, A31G
DNA 1: CAATCTGAATTCCGGTCTCCC
DNA 2: TGGTGGCTACGACGGGATT
B28: CCACGCA (DNA:RNA)
RNA: B1 RNA with G25C, A28C, C29G, C31A
DNA 1: CAATCTGAATTCCGGTCTCCC
DNA 2: TGGTGGCTACGACGGGATT
B29: GGGUGAG (DNA:RNA)
RNA: B10 RNA with U25G, C27G, G28U, U29G, A31G
DNA 1: CAATCTGAATTCCGGTCTCCC
DNA 2: TGGTGGCTACGACGGGATT
B30: UAGUUCU (DNA:RNA)
RNA: B10 RNA with G26A, C27G, G28U, A30C, A31U
DNA 1: CAATCTGAATTCCGGTCTCCC
DNA 2: TGGTGGCTACGACGGGATT
B31: GGACCGU (DNA:RNA)
RNA: B1 RNA with C26G, A28C, C30G, C31U
DNA 1: CAATCTGAATTCCGGTCTCCC
DNA 2: TGGTGGCTACGACGGGATT

target: T1, RBFOX1 RRM; assay: EMSA; HiTS-Eq, 1 nM pool, 10 min; buffer printed only for the single-RNA assays: 10 mM Tris pH 7.5, 150 mM NaCl, 3.4 mM EDTA, 0.001% NP-40, 30 C; conditions: tags: His6 N-terminal (pET28a); label: 5' 32P
Summary of the method: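 Relative association constants, normalised to the cognate motif, were derived by comparing read counts of each RNA species with those of the control reaction. The RNA sequenced was the free fraction, separated by 8% native PAGE after a 10 min equilibration in 50 µL of 1 nM 5′-radiolabelled RNA (7 randomized nucleotides) with increasing concentrations of purified wild-type or mutant RbFox RRM.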

Compared with B1, B2 is lower in binding signal: 0.0088 KA relative to UGCAUGU for the first, 0.0015 KA relative to UGCAUGU for the second.

Compared with B3, B4 is lower in binding signal: 0.0115 KA relative to UGCAUGU for the first, 0.00573 KA relative to UGCAUGU for the second.

Compared with B5, B6 is higher in binding signal: 0.00797 KA relative to UGCAUGU for the first, 0.0303 KA relative to UGCAUGU for the second.

First: B7
Second: B8
The binding signal of the first is higher: 0.0171 KA relative to UGCAUGU for the first, 0.00867 KA relative to UGCAUGU for the second.

Compared with B9, B10 is higher in binding signal: 0.00419 KA relative to UGCAUGU for the first, 0.0144 KA relative to UGCAUGU for the second.

Compared with B11, B12 is higher in binding signal: 0.000377 KA relative to UGCAUGU for the first, 0.00657 KA relative to UGCAUGU for the second.

First: B13
Second: B14
The binding signal of the first is higher: 0.00784 KA relative to UGCAUGU for the first, 0.00488 KA relative to UGCAUGU for the second.

Compared with B15, B16 is higher in binding signal: 0.0135 KA relative to UGCAUGU for the first, 0.0231 KA relative to UGCAUGU for the second.

First: B17
Second: B18
The binding signal of the first is higher: 0.0106 KA relative to UGCAUGU for the first, 0.0015 KA relative to UGCAUGU for the second.

Compared with B19, B20 is lower in binding signal: 0.0257 KA relative to UGCAUGU for the first, 0.0109 KA relative to UGCAUGU for the second.

First: B21
Second: B22
The binding signal of the first is higher: 0.0266 KA relative to UGCAUGU for the first, 0.00428 KA relative to UGCAUGU for the second.

First: B23
Second: B24
The binding signal of the first is lower: 0.000847 KA relative to UGCAUGU for the first, 0.00741 KA relative to UGCAUGU for the second.

First: B25
Second: B26
The binding signal of the first is lower: 0.0103 KA relative to UGCAUGU for the first, 0.0326 KA relative to UGCAUGU for the second.

First: B27
Second: B28
The binding signal of the first is higher: 0.0206 KA relative to UGCAUGU for the first, 0.00795 KA relative to UGCAUGU for the second.

First: B29
Second: B30
The binding signal of the first is higher: 0.0109 KA relative to UGCAUGU for the first, 0.0102 KA relative to UGCAUGU for the second.

For B31, the binding signal was 0.0132 KA relative to UGCAUGU.
